Reference: US12285407B2, “Bis-indolylmethane derivatives and uses thereof” (The University of The West Indies, priority 2018, dated 2025)

Key:
[1] = system: MRSA; assay: Adjuvant broth microdilution (antibiotic MIC with SP-BIM at 50 μg/mL); format: cell-based, Staphylococcus aureus; conditions: antibiotic alone
[2] = system: Escherichia coli; assay: microbe, parasite or virus in culture; format: cell-based; conditions: antibiotic alone, Table 6, read-out: MIC of antibiotic, No compound
[3] = system: Klebsiella pneumoniae; assay: Adjuvant broth microdilution (antibiotic MIC with SP-BIM at 50 μg/mL); format: cell-based; conditions: Klebsiella pneumonia, antibiotic alone
[4] = system: Enterobacter cloacae; assay: as above; format: cell-based; conditions: antibiotic alone
[5] = system: Staphylococcus aureus; assay: Checkerboard synergy (FICI) of antibiotics with SP-BIM; format: cell-based; conditions: for MIC: 24 h, antibiotic alone, read-out: MIC antibiotic only
[6] = system: Streptococcus pneumoniae; assay: as above; format: cell-based; conditions: for MIC: 24 h, antibiotic alone, read-out: MIC antibiotic only
[7] = system: Bacillus cereus; assay: as above; format: cell-based; conditions: for MIC: 24 h, antibiotic alone, read-out: MIC antibiotic only
[8] = system: Enterococcus faecium; assay: as above; format: cell-based
[9] = system: Klebsiella pneumoniae; assay: as above; format: cell-based; conditions: for MIC: 24 h, antibiotic alone, read-out: MIC antibiotic only
[10] = system: Escherichia coli; assay: as above; set-up: MIC in combination: Antibiotic: unit not given beside the values; conditions: for MIC: 24 h
[11] = system: Candida albicans; assay: as above; set-up: MIC in combination: Antibiotic: unit not given beside the values
[12] = SP-BIM 9 in combination with the labelled antibiotic
[13] = SP-BIM 13 in combination with the labelled antibiotic
[14] = antibiotic in combination with SP-BIM 9
[15] = antibiotic in combination with SP-BIM 13
[16] = Streptococcus pneumonia (title: Streptococcus pyogenes), antibiotic + SP-BIM 9
[17] = Streptococcus pneumoniae, antibiotic + SP-BIM 13
[18] = MIC of the antibiotic in combination with SP-BIM 13

NC[C@H]1O[C@H](O[C@H]2[C@H](O)[C@@H](O[C@H]3O[C@H](CO)[C@@H](O)[C@H](N)[C@H]3O)[C@H](N)C[C@@H]2N)[C@H](O)[C@@H](O)[C@@H]1O [Kanamycin, kanamycin]
MIC ([1]; Staphylococcus aureus, Table 4, read-out: MIC of antibiotic, No compound): 16 µg/mL | MIC of antibiotic, No Compound ([1]; Table 8 (series SP-BIMs 21-29)): 8 µg/mL | MIC [2]: 32 µg/mL | MIC of antibiotic, No Compound [3]: >250 µg/mL | MIC of antibiotic, No Compound [4]: 4 µg/mL | MIC ([5]; SP-BIM 9 checkerboard): 4 µg/mL | MIC ([5]; SP-BIM 13 checkerboard): 4 µg/mL | FIC of SP-BIM 9 [5, 12]: 0.02 | FIC of SP-BIM 13 [5, 13]: 0.3 | Interpretation ([5]; antibiotic + SP-BIM 9): Synergy (Synergy: FICI≤0.5) | Σ FIC ([5]; antibiotic + SP-BIM 9): ≤0.27 | Interpretation ([5]; antibiotic + SP-BIM 13): Synergy (Synergy: FICI≤0.5) | Σ FIC ([5]; antibiotic + SP-BIM 13): 0.3 | MIC in combination, Antibiotic [5, 14]: 1.0 µg/mL | MIC in combination, Antibiotic [5, 15]: 0.25 µg/mL | FIC of antibiotic ([5]; in combination with SP-BIM 9): 0.25 | FIC of antibiotic ([5]; in combination with SP-BIM 13): 0.1 | FIC of SP-BIM 9 ([6]; Streptococcus pneumonia (title: Streptococcus pyogenes), SP-BIM 9 in combination with the labelled antibiotic): 0.03 | Interpretation [6, 16]: Synergy (Synergy: FICI≤0.5) | Σ FIC [6, 16]: <0.16 | MIC in combination, Antibiotic ([6]; Streptococcus pneumonia (title: Streptococcus pyogenes), antibiotic in combination with SP-BIM 9): 4 µg/mL | FIC of antibiotic ([6]; Streptococcus pneumonia (title: Streptococcus pyogenes), in combination with SP-BIM 9): 0.13 | MIC ([6]; Streptococcus pneumoniae, Streptococcus pneumonia (title: Streptococcus pyogenes), SP-BIM 9 checkerboard): 32 µg/mL | MIC ([6]; Streptococcus pneumoniae, Streptococcus pneumoniae, SP-BIM 13 checkerboard): 32 µg/mL | FIC of SP-BIM 13 ([6]; Streptococcus pneumoniae, SP-BIM 13 in combination with the labelled antibiotic): 0.3 | Interpretation [6, 17]: Synergy (Synergy: FICI≤0.5) | Σ FIC [6, 17]: <0.3 | MIC in combination, Antibiotic ([6]; Streptococcus pneumoniae, antibiotic in combination with SP-BIM 13): 0.5 µg/mL | FIC of antibiotic ([6]; Streptococcus pneumoniae, in combination with SP-BIM 13): 0.0 | MIC ([7]; SP-BIM 9 checkerboard): 2 µg/mL | MIC ([7]; SP-BIM 13 checkerboard): 2 µg/mL | MIC in combination, SP-BIM 9 ([7]; SP-BIM 9 concentration in combination with the labelled antibiotic): 8 µg/mL | FIC of SP-BIM 9 [7, 12]: 0.032 | FIC of SP-BIM 13 [7, 13]: 0.5 | Interpretation ([7]; antibiotic + SP-BIM 9): Synergy (Synergy: FICI≤0.5) | Σ FIC ([7]; antibiotic + SP-BIM 9): <0.5 | Interpretation ([7]; antibiotic + SP-BIM 13): Additive (Additive: FICI>0.5-1.0) | Σ FIC ([7]; antibiotic + SP-BIM 13): 0.6 | MIC in combination, Antibiotic [7, 14]: 1 µg/mL | MIC in combination, Antibiotic [7, 15]: 0.25 µg/mL | FIC of antibiotic ([7]; in combination with SP-BIM 9): 0.5 | FIC of antibiotic ([7]; in combination with SP-BIM 13): 0.13 | FIC of SP-BIM 13 [8, 13]: 0.3 | Interpretation ([8]; antibiotic + SP-BIM 13): Synergy (Synergy: FICI≤0.5) | Σ FIC ([8]; antibiotic + SP-BIM 13): <0.3 | MIC in combination, Antibiotic [8, 15]: 4 µg/mL | FIC of antibiotic ([8]; in combination with SP-BIM 13): 0.0 | MIC ([9]; SP-BIM 9 checkerboard): 4 µg/mL | MIC ([9]; SP-BIM 13 checkerboard): 4 µg/mL | FIC of SP-BIM 9 [9, 12]: 1 | FIC of SP-BIM 13 [9, 13]: 1.0 | Interpretation ([9]; antibiotic + SP-BIM 9): Indifferent (Indifferent: FICI>1.0-4.0) | Σ FIC ([9]; antibiotic + SP-BIM 9): <1.3 | Interpretation ([9]; antibiotic + SP-BIM 13): Indifferent (Indifferent: FICI>1.0-4.0) | Σ FIC ([9]; antibiotic + SP-BIM 13): <1.5 | MIC in combination, Antibiotic [9, 14]: 1 µg/mL | MIC in combination, Antibiotic [9, 15]: 2 µg/mL | FIC of antibiotic ([9]; in combination with SP-BIM 9): 0.25 | FIC of antibiotic ([9]; in combination with SP-BIM 13): 0.5 | MIC ([10]; read-out: MIC antibiotic only, Escherichia coli, antibiotic alone): 32 µg/mL | MIC ([10]; read-out: MIC antibiotic only, Escherichia coli, antibiotic alone, SP-BIM 9 checkerboard): 32 µg/mL | MIC in combination: Antibiotic [10, 18]: 4 | FIC of SP-BIM 9 [10, 12]: 0.032 | FIC of SP-BIM 13 [10, 13]: 0.1 | Interpretation ([10]; antibiotic + SP-BIM 9): Synergy (Synergy: FICI≤0.5) | Σ FIC ([10]; antibiotic + SP-BIM 9): <0.1 | Interpretation ([10]; antibiotic + SP-BIM 13): Synergy (Synergy: FICI≤0.5) | Σ FIC ([10]; antibiotic + SP-BIM 13): <0.3 | MIC in combination, Antibiotic [10, 14]: 2 µg/mL | FIC of antibiotic ([10]; combination with SP-BIM 13): 0.1 | FIC of antibiotic ([10]; in combination with SP-BIM 9): 0.0625 | MIC in combination: Antibiotic [11, 18]: 4 | FIC of SP-BIM 13 [11, 13]: 0.3 | Interpretation ([11]; antibiotic + SP-BIM 13): Synergy (Synergy: FICI≤0.5) | Σ FIC ([11]; antibiotic + SP-BIM 13): <0.3 | FIC of antibiotic ([11]; combination with SP-BIM 13): 0.0

Read-outs that look alike come from different tables or passages of the source.
